Experimental data as given in patent US20240182561A1 (Regeneron, published 2024).

Legend:
[1] = molecular target: T1, human CACNG1 expressed on cells (human, UniProt Q06432 1-222); experiment: cell-based or functional assay
[2] = molecular target: T2, mouse CACNG1 expressed on cells (mouse, UniProt O70578 1-223); experiment: cell-based or functional assay
T2 sequence (looked up): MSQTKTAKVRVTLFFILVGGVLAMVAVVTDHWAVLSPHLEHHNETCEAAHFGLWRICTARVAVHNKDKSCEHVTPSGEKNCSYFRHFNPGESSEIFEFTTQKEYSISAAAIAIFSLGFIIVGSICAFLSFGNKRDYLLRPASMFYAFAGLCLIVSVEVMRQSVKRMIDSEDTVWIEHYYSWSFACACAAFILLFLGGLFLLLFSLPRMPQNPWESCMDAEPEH

[3] = molecular target: T1, human CACNG1 expressed on cells; experiment: imaging cell binding, HEK293/hCACNG1
Method: (§1) HuSKM were seeded in collagen-coated 96-well plates (Greiner Bio-One #655956) at 8,500 cells/well and grown for 24 hours. The growth media was changed to MyoTonic Differentiation Media (Cook Myosite Cat #MD-5555) and replaced every 2 days. Myotubes were assayed after 6 days of differentiation. C2C12 mouse myoblasts were maintained in DMEM with 10% FBS and 1% penicillin-streptomycin supplement and grown in a 37° C. incubator with 5% CO₂. C2C12 cells were seeded in collagen-coated 96-well plates (Greiner Bio-One #655956) at 10,000 cells/well for the cell binding assay and 5,000 cells/well for the cell killing assay. After 24 hours, growth media was replaced with differentiation media (DMEM with 2% horse serum) and placed in a 37° C. incubator with 7.5% CO₂. C2C12 myotubes were assayed after 3 days of differentiation. HEK293/hCACNG1, HEK293/mCACNG1, and HEK293 cells were seeded at 10,000 cells (cell binding assay) or 2,000 (cell killing assay) per well in 96-well black collagen coated plates (Greiner Bio-One, cat #655956) in complete growth media and grown overnight at 37° C. in 5% CO₂.
(§2) Relative binding of anti-CACNG1 antibodies was assessed across the entire panel of cell lines via imaging analysis. […] Images were acquired with a 10× objective on the Opera Phenix (Perkin Elmer) and relative fluorescence units (RFU) was determined using Harmony software (Perkin Elmer).

[4] = molecular target: T2, mouse CACNG1 expressed on cells; experiment: imaging cell binding, HEK293/mCACNG1
Method: as §1, §2

[5] = molecular target: T1, human CACNG1 expressed on cells; experiment: imaging cell binding, HuSKM myotubes
Method: as §1, §2

[6] = molecular target: T3, nanodisc embedded human CACNG1 expressed with a C-terminal PADRE-Flag-His tag (human, UniProt Q06432 1-222); experiment: SPR, anti-His-captured nanodisc, 25 C
T3 construct: Captured on an anti-His Biacore surface; also called human CACNG1 nanodisc; CACNG1 nanodisc; not shown: C-terminal tag
Method: Equilibrium dissociation constants (KD values) for nanodisc embedded human CACNG1 expressed with a C-terminal […] tag (human CACNG1 nanodisc; concentration 0.82 mg/ml) binding to purified anti-CACNG1 antibodies were determined using a real-time surface plasmon resonance biosensor technology with a Biacore T200 instrument. The CM5 Biacore sensor surface was derivatized by amine coupling with a monoclonal mouse anti-His antibody (Cytiva; Marlborough, MA). All Biacore binding studies were performed in a buffer composed of 0.01M HEPES, 0.15M NaCl, 1 mM CaCl₂, 0.5 mM MgCl₂, pH 7.4 (HBS-N++ running buffer). Different concentrations of anti-CACNG1 antibodies (ranging from 300 nM to 12 nM in 5-fold serial dilutions) prepared in HBS-N++ running buffer were injected over the captured human CACNG1 nanodisc at a flow rate of 30 μL/minute. Antibody association was monitored for 2 minutes while dissociation was monitored in HBS-N++ running buffer for 5 minutes. At the end of each cycle, the human CACNG1 nanodisc capture surface was regenerated using three 10 second injections of 10 mM Gly pH1.5. All binding kinetics experiments were performed at 25° C.
The specific SPR-Biacore sensorgrams were obtained by a double referencing procedure. The double referencing was performed by first subtracting the signal of each injection over a reference surface (anti-His) from the signal over the experimental surface (anti-His captured human CACNG1 nanodisc) thereby removing contributions from refractive index changes. In addition, running buffer injections were performed to allow subtraction of the signal changes resulting from the dissociation of captured antibodies from the coupled anti-His surface. Kinetic association (kₐ) and dissociation ([…]) rate constants were determined by fitting the real-time sensorgrams to a 1:1 binding model using Scrubber v2.0c curve fitting software. Binding dissociation equilibrium constants (KD) and dissociative half-lives (t %) were calculated from the kinetic rate constants as: […]

[7] = molecular target: T2, mouse CACNG1 expressed on cells; experiment: imaging cell binding, C2C12 mouse myotubes
Method: as §1, §2

[8] = molecular target: T1, human CACNG1 expressed on cells; experiment: cell-based or functional assay; remark: listed apart in the source
[9] = molecular target: T1, human CACNG1 expressed on cells; experiment: cell-based or functional assay; remark: listed apart in the source

T1 sequence (Q06432 whole entry): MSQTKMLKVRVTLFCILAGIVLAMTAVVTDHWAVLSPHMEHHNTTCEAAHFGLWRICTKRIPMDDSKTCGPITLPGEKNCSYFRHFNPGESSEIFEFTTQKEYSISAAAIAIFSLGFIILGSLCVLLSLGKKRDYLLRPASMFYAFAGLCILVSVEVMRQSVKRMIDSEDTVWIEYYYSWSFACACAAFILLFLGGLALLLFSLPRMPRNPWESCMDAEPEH

B1: REGN10783 (antibody, human IgG4 S228P, kappa)
heavy: QVQLVESGGGVVQPGTSLRLSCAASGFTFSSYGMHWVRQAPGKGLEWVAVIWIDGSNKYYADSVKGRFTISRDNSKNTLYLQMNSLRAEDTAVYYCARRGGIVVAAPFDYWGQGTLVTVSSASTKGPSVFPLAPCSRSTSESTAALGCLVKDYFPEPVTVSWNSGALTSGVHTFPAVLQSSGLYSLSSVVTVPSSSLGTKTYTCNVDHKPSNTKVDKRV[human IgG4 Fc with S228P (EU numbers) omitted here]
light: [about 100 residues omitted here][about 120 residues omitted here]
notes: hIgG4
For B1, the “% KILL, indirect cell killing, HEK293/hCACNG1” value [1] was 95.4%, the “% KILL, indirect cell killing, HuSKM” value [1] was 99.3% and the “EC50/IC50, indirect cell killing, HEK293/hCACNG1” value [1] was 0.00178 nM. For the same binder, the “EC50/IC50, indirect cell killing, HuSKM” value [1] was 0.216 nM, the “% KILL, indirect cell killing, C2C12” value [2] was 0% and the “% KILL, indirect cell killing, HEK293/mCACNG1” value [2] was 23.7%. For the same binder, the “EC50/IC50, indirect cell killing, C2C12” value [2] was greater than 10 nM, the “EC50/IC50, indirect cell killing, HEK293/mCACNG1” value [2] was greater than 1 nM and the EC50 [3] was 8.5 nM. For the same binder, the S/N [3] was 230 fold, the S/N [4] was 1.7 fold and the EC50 [5] was 2.9 nM. For the same binder, the S/N [5] was 734 fold, the Kd [6] was 93.5 nM and the koff [6] was 0.0127 s⁻¹. The kon [6] was 136000 M⁻¹ s⁻¹, the “mAb bound at 300 nM” value [6] was 9 RU and the t1/2 [6] was 54 s. For the same binder, the S/N [7] was 1.1 fold and the binding result [7] was “no binding (tested: 100 nM highest tested)”.

B2: REGN14647-M3004 (antibody, human IgG1, kappa)
heavy chain: QVQLVESGGGVVQPGRSLRLSCTASGITFRNYGMHWVRQAPGKGLEWVAVMWYDGSNKYYADSVKGRFTISGDNSKVYLQMNSLRAEDTAVYYCARRGTIRTAAPFDYWGQGTLVTVSS[human IgG1 constant region with changes omitted here]
light chain: [about 100 residues omitted here][about 120 residues omitted here]
modifications: DHT linker-payload M3004 conjugated, DAR about 4
For B2, the “EC50 of androgen receptor luciferase reporter activation (RLU) by the DHT conjugate REGN14647-M3004 in hCACNG1.AR.Luc LNCaP cells, 24 hours; concentration adjusted for DAR” value [8] was 6.75 nM and the “EC50 of androgen receptor luciferase reporter activation (RLU) by the DHT conjugate REGN14647-M3004 in hCACNG1.AR.Luc LNCaP cells, 72 hours; concentration adjusted for DAR” value [9] was 7.36 nM.
